For two compounds, GI50 and TGI results are on record in PubChem BioAssay (NCI).

This assay deals with NCI-H322M lung. Put plainly: growth of human tumour cells (NCI), 48 h.

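How tested: cells in 96-well plates exposed to compound for 48 hours at five concentrations. GI50 is the concentration that inhibits growth by half. TGI is the concentration that stops growth completely.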

For `COc1cc(/C=C/C(=O)c2cnn(-c3cc(=O)[nH]c4ccc(Br)cc34)c2C)cc(OC)c1OC`, the GI50 is 2.94 µM and the TGI worked out at 12.7 µM.

With `O=C(Nc1ccc(F)c(Cl)c1)c1cc(-c2ccc(F)cc2F)ccc1O`, the GI50 is 2.82 µM and the TGI came out at 23.1 µM.
